This continues a long series; more values of the same kind are listed elsewhere.
Columns and labels:
Test in all cases: concentration in plasma after dosing
Rat [1] = details: 0.5 h; dosed: Fluorotelomer alcohol 8+2; 80 mg/kg; oral; Female; Harlan Sprague Dawley
Rat [2] = details: dosed: Fluorotelomer alcohol 8+2, 160 mg/kg, oral, Female, Harlan Sprague Dawley
Rat [3] = details: dosed: Perfluorooctanoic acid, 80 mg/kg, oral, Female, Harlan Sprague Dawley
Rat [4] = details: dosed: Fluorotelomer alcohol 8+2, 40 mg/kg, oral, Female, Harlan Sprague Dawley
Rat [5] = tested on: Rat
Rat [6] = details: 96 h; dosed: Perfluorooctanoic acid; 80 mg/kg; oral; Female; Harlan Sprague Dawley
Rat [7] = details: dosed: Perfluorooctanoic acid, 6 mg/kg, iv, Male, F344
Rat [8] = details: dosed: Perfluorooctanoic acid, 6 mg/kg, iv, Male, F344; remark: listed apart in the source
Rat [9] = details: 192 h; dosed: Perfluorooctanoic acid; 80 mg/kg; oral; Female; Harlan Sprague Dawley
Rat [10] = details: dosed: Fluorotelomer alcohol 8+2, 48 mg/kg, oral, Male, Harlan Sprague Dawley
Rat [11] = details: dosed: Perfluorooctanoic acid, 40 mg/kg, iv, Male, F344
Rat [12] = details: dosed: Fluorotelomer alcohol 8+2, 40 mg/kg, oral, Female, Harlan Sprague Dawley; remark: listed apart in the source

O=C(O)C(F)(F)C(F)(F)C(F)(F)C(F)(F)C(F)(F)C(F)(F)C(F)(F)F [Perfluorooctanoic acid]
Details | concentration in plasma [ng/mL]
Rat [1] | 422
Rat [6] | 170
Rat [9] | 1170

Details | concentration in plasma [ng/mL]
Rat [2], 0.25 h | 145
Rat [2], 6 h | 5200
Rat [3], 0.25 h | 154000
Rat [3], 9 h | 293000
Rat [4], 0.5 h | 255
Rat [4], 9 h | 745
Rat [7], 3 h | 54700
Rat [7], 192 h | 22900
Rat [8], 0.5 h | 46800
Rat [8], 24 h | 45600
Rat [8], 1200 h | 331
Rat [10], 0.75 h | 21
Rat [10], 12 h | 331
Rat [11], 0.5 h | 220000
Rat [11], 24 h | 1640
Rat [12], 0.75 h | 932
Rat [12], 12 h | 704

concentration in plasma [ng/mL], Rat [5], dosed: Perfluorooctanoic acid
Details | Female | Male
0.25 h, 6 mg/kg, iv, F344 | – | 51000
0.25 h, 6 mg/kg, oral, Harlan Sprague Dawley | – | 15000
0.25 h, 12 mg/kg, oral, Harlan Sprague Dawley | – | 19600
0.25 h, 40 mg/kg, iv, F344 | – | 257000
0.25 h, 40 mg/kg, oral, Harlan Sprague Dawley | – | 62500
0.25 h, 48 mg/kg, oral, Harlan Sprague Dawley | – | 46100
0.25 h, 80 mg/kg, oral, Harlan Sprague Dawley | 106000 | –
0.25 h, 320 mg/kg, oral, Harlan Sprague Dawley | 194000 | –
0.5 h, 6 mg/kg, iv, F344 | – | 47300
1 h, 6 mg/kg, iv, F344 | – | 48700
1 h, 6 mg/kg, oral, Harlan Sprague Dawley | – | 18600
1 h, 12 mg/kg, oral, Harlan Sprague Dawley | – | 54400
1 h, 40 mg/kg, iv, F344 | – | 137000
1 h, 40 mg/kg, oral, Harlan Sprague Dawley | – | 108000
1 h, 48 mg/kg, oral, Harlan Sprague Dawley | – | 97900
1 h, 80 mg/kg, oral, Harlan Sprague Dawley | 216000 | –
1 h, 320 mg/kg, oral, Harlan Sprague Dawley | 387000 | –
3 h, 6 mg/kg, iv, F344 | – | 49700
3 h, 6 mg/kg, oral, Harlan Sprague Dawley | – | 35300
3 h, 12 mg/kg, oral, Harlan Sprague Dawley | – | 75700
3 h, 40 mg/kg, iv, F344 | – | 110000
3 h, 40 mg/kg, oral, Harlan Sprague Dawley | – | 114000
3 h, 48 mg/kg, oral, Harlan Sprague Dawley | – | 229000
3 h, 80 mg/kg, oral, Harlan Sprague Dawley | 60200 | –
3 h, 320 mg/kg, oral, Harlan Sprague Dawley | 382000 | –
5 min, 6 mg/kg, iv, F344 | – | 55600
5 min, 40 mg/kg, iv, F344 | 331000 | 350000
5 min, 40 mg/kg, iv, Harlan Sprague Dawley | 362000 | –
6 h, 6 mg/kg, iv, F344 | – | 57600
6 h, 6 mg/kg, oral, Harlan Sprague Dawley | – | 39200
6 h, 12 mg/kg, oral, Harlan Sprague Dawley | – | 67300
6 h, 40 mg/kg, iv, F344 | – | 66100
6 h, 40 mg/kg, oral, Harlan Sprague Dawley | – | 91600
6 h, 48 mg/kg, oral, Harlan Sprague Dawley | – | 273000
6 h, 80 mg/kg, oral, Harlan Sprague Dawley | 213000 | –
6 h, 320 mg/kg, oral, Harlan Sprague Dawley | 304000 | –
9 h, 40 mg/kg, oral, Harlan Sprague Dawley | – | 110000
9 h, 80 mg/kg, oral, Harlan Sprague Dawley | 172000 | –
9 h, 320 mg/kg, oral, Harlan Sprague Dawley | 400000 | –
12 h, 6 mg/kg, iv, F344 | – | 41100
12 h, 6 mg/kg, oral, Harlan Sprague Dawley | – | 46000
12 h, 12 mg/kg, oral, Harlan Sprague Dawley | – | 90300
12 h, 40 mg/kg, iv, F344 | – | 12300
12 h, 40 mg/kg, oral, Harlan Sprague Dawley | – | 28600
12 h, 48 mg/kg, oral, Harlan Sprague Dawley | – | 296000
12 h, 80 mg/kg, oral, Harlan Sprague Dawley | 82500 | –
12 h, 320 mg/kg, oral, Harlan Sprague Dawley | 260000 | –
24 h, 6 mg/kg, iv, F344 | – | 44600
24 h, 6 mg/kg, oral, Harlan Sprague Dawley | – | 39800
24 h, 12 mg/kg, oral, Harlan Sprague Dawley | – | 80400
24 h, 40 mg/kg, iv, F344 | – | 986
24 h, 40 mg/kg, oral, Harlan Sprague Dawley | – | 2030
24 h, 48 mg/kg, oral, Harlan Sprague Dawley | – | 255000
24 h, 80 mg/kg, oral, Harlan Sprague Dawley | 9430 | –
24 h, 320 mg/kg, oral, Harlan Sprague Dawley | 397000 | –
48 h, 40 mg/kg, iv, F344 | – | 319
48 h, 40 mg/kg, oral, Harlan Sprague Dawley | – | 86
48 h, 80 mg/kg, oral, Harlan Sprague Dawley | 383 | –
48 h, 320 mg/kg, oral, Harlan Sprague Dawley | 372000 | –
96 h, 40 mg/kg, oral, Harlan Sprague Dawley | – | 50.6
96 h, 80 mg/kg, oral, Harlan Sprague Dawley | 166 | –
96 h, 320 mg/kg, oral, Harlan Sprague Dawley | 2820 | –
192 h, 6 mg/kg, iv, F344 | – | 14200
192 h, 6 mg/kg, oral, Harlan Sprague Dawley | – | 21700
192 h, 12 mg/kg, oral, Harlan Sprague Dawley | – | 31600
192 h, 48 mg/kg, oral, Harlan Sprague Dawley | – | 75700
192 h, 80 mg/kg, oral, Harlan Sprague Dawley | 2060 | –
528 h, 6 mg/kg, iv, F344 | – | 3510
528 h, 6 mg/kg, oral, Harlan Sprague Dawley | – | 4540
528 h, 12 mg/kg, oral, Harlan Sprague Dawley | – | 8760
528 h, 12 mg/kg, oral, Harlan Sprague Dawley - this seems too small | – | 22300
528 h, 48 mg/kg, oral, Harlan Sprague Dawley | – | 31500
864 h, 6 mg/kg, iv, F344 | – | 1640
864 h, 6 mg/kg, oral, Harlan Sprague Dawley | – | 3490
864 h, 12 mg/kg, oral, Harlan Sprague Dawley | – | 9760
864 h, 48 mg/kg, oral, Harlan Sprague Dawley | – | 18000
1200 h, 6 mg/kg, oral, Harlan Sprague Dawley | – | 1070
1200 h, 12 mg/kg, oral, Harlan Sprague Dawley | – | 673
1200 h, 48 mg/kg, oral, Harlan Sprague Dawley | – | 7840

concentration in plasma [ng/mL], Rat [5], oral
Details | Harlan Sprague Dawley | Harlan Sprague Dawley - this seems too small
0.25 h, dosed: Fluorotelomer alcohol 8+2, 24 mg/kg, Male | 14.8 | –
0.25 h, dosed: Fluorotelomer alcohol 8+2, 40 mg/kg, Female | 122 | –
0.25 h, dosed: Fluorotelomer alcohol 8+2, 48 mg/kg, Male | 34.7 | –
0.25 h, dosed: Fluorotelomer alcohol 8+2, 80 mg/kg, Female | 108 | –
0.25 h, dosed: Fluorotelomer alcohol 8+2, 160 mg/kg, Female | 116 | –
0.5 h, dosed: Fluorotelomer alcohol 8+2, 24 mg/kg, Male | 138 | 57.6
0.5 h, dosed: Fluorotelomer alcohol 8+2, 40 mg/kg, Female | 398 | –
0.5 h, dosed: Fluorotelomer alcohol 8+2, 48 mg/kg, Male | 225 | –
0.5 h, dosed: Fluorotelomer alcohol 8+2, 80 mg/kg, Female | 521 | –
0.5 h, dosed: Fluorotelomer alcohol 8+2, 160 mg/kg, Female | 778 | –
0.75 h, dosed: Fluorotelomer alcohol 8+2, 12 mg/kg, Male | 231 | –
0.75 h, dosed: Fluorotelomer alcohol 8+2, 24 mg/kg, Male | 289 | –
0.75 h, dosed: Fluorotelomer alcohol 8+2, 40 mg/kg, Female | 863 | –
0.75 h, dosed: Fluorotelomer alcohol 8+2, 48 mg/kg, Male | 357 | –
0.75 h, dosed: Fluorotelomer alcohol 8+2, 80 mg/kg, Female | 707 | –
0.75 h, dosed: Fluorotelomer alcohol 8+2, 160 mg/kg, Female | 1130 | –
1 h, dosed: Fluorotelomer alcohol 8+2, 12 mg/kg, Male | 233 | –
1 h, dosed: Fluorotelomer alcohol 8+2, 24 mg/kg, Male | 258 | –
1 h, dosed: Fluorotelomer alcohol 8+2, 40 mg/kg, Female | 601 | –
1 h, dosed: Fluorotelomer alcohol 8+2, 48 mg/kg, Male | 568 | –
1 h, dosed: Fluorotelomer alcohol 8+2, 80 mg/kg, Female | 922 | –
1 h, dosed: Fluorotelomer alcohol 8+2, 160 mg/kg, Female | 2220 | –
3 h, dosed: Fluorotelomer alcohol 8+2, 24 mg/kg, Male | 596 | –
3 h, dosed: Fluorotelomer alcohol 8+2, 40 mg/kg, Female | 815 | –
3 h, dosed: Fluorotelomer alcohol 8+2, 48 mg/kg, Male | 1060 | –
3 h, dosed: Fluorotelomer alcohol 8+2, 80 mg/kg, Female | 2020 | –
3 h, dosed: Fluorotelomer alcohol 8+2, 160 mg/kg, Female | 4680 | –
6 h, dosed: Fluorotelomer alcohol 8+2, 24 mg/kg, Male | 543 | –
6 h, dosed: Fluorotelomer alcohol 8+2, 40 mg/kg, Female | 1770 | –
6 h, dosed: Fluorotelomer alcohol 8+2, 48 mg/kg, Male | 3300 | –
6 h, dosed: Fluorotelomer alcohol 8+2, 80 mg/kg, Female | 2390 | –
6 h, dosed: Fluorotelomer alcohol 8+2, 160 mg/kg, Female | 3510 | –
9 h, dosed: Fluorotelomer alcohol 8+2, 24 mg/kg, Male | 1010 | –
9 h, dosed: Fluorotelomer alcohol 8+2, 40 mg/kg, Female | 1150 | –
9 h, dosed: Fluorotelomer alcohol 8+2, 48 mg/kg, Male | 2340 | –
9 h, dosed: Fluorotelomer alcohol 8+2, 80 mg/kg, Female | 1640 | –
9 h, dosed: Fluorotelomer alcohol 8+2, 160 mg/kg, Female | 2560 | –
12 h, dosed: Fluorotelomer alcohol 8+2, 12 mg/kg, Male | 612 | –
12 h, dosed: Fluorotelomer alcohol 8+2, 24 mg/kg, Male | 1000 | –
12 h, dosed: Fluorotelomer alcohol 8+2, 40 mg/kg, Female | 1100 | –
12 h, dosed: Fluorotelomer alcohol 8+2, 48 mg/kg, Male | 2210 | –
12 h, dosed: Fluorotelomer alcohol 8+2, 80 mg/kg, Female | 557 | –
12 h, dosed: Fluorotelomer alcohol 8+2, 160 mg/kg, Female | 2790 | –
24 h, dosed: Fluorotelomer alcohol 8+2, 12 mg/kg, Male | 639 | –
24 h, dosed: Fluorotelomer alcohol 8+2, 24 mg/kg, Male | 1040 | –
24 h, dosed: Fluorotelomer alcohol 8+2, 40 mg/kg, Female | 89.4 | –
24 h, dosed: Fluorotelomer alcohol 8+2, 48 mg/kg, Male | 1920 | –
24 h, dosed: Fluorotelomer alcohol 8+2, 80 mg/kg, Female | 219 | –
24 h, dosed: Fluorotelomer alcohol 8+2, 160 mg/kg, Female | 799 | –
48 h, dosed: Fluorotelomer alcohol 8+2, 24 mg/kg, Male | 924 | –
48 h, dosed: Fluorotelomer alcohol 8+2, 40 mg/kg, Female | 13.6 | –
48 h, dosed: Fluorotelomer alcohol 8+2, 48 mg/kg, Male | 2050 | –
48 h, dosed: Fluorotelomer alcohol 8+2, 80 mg/kg, Female | 30.3 | –
48 h, dosed: Fluorotelomer alcohol 8+2, 160 mg/kg, Female | 171 | –
192 h, dosed: Fluorotelomer alcohol 8+2, 24 mg/kg, Male | 685 | –
192 h, dosed: Fluorotelomer alcohol 8+2, 48 mg/kg, Male | 1330 | –

Reference: EPA's CvTdb concentration-time database
